In all, about 410,000 compounds went through this assay and about 6,400 (1.6%) were called active. Inconclusive results, whose numbers are uncertain, are shown with a selection of clear calls. Calls come from the whole dose curve; as a rule, active = well fitted inhibition curve with a large enough effect; inconclusive = small, poorly fitted or top-dose-only effect; inactive = no such curve, though single readings can be large or run the other way. No potency is given beside an inconclusive call; the fits are too rough.
target: Glucagon-like peptide 1 receptor (Homo sapiens) (UniProt P43220); experiment: qHTS of GLP-1 Receptor Inverse Agonists (Inhibition Mode); details: HEK293 GLP-1R CRE-luciferase, luminescence, 24 h, GLP-1R form is constitutively active; activity change, negative = inhibition: at 38.3 µM (top of the series) unless noted; note: nearly all actives have a fitted effect of over 55% in size
Sequence of UniProt P43220 (P43220 whole entry, looked up): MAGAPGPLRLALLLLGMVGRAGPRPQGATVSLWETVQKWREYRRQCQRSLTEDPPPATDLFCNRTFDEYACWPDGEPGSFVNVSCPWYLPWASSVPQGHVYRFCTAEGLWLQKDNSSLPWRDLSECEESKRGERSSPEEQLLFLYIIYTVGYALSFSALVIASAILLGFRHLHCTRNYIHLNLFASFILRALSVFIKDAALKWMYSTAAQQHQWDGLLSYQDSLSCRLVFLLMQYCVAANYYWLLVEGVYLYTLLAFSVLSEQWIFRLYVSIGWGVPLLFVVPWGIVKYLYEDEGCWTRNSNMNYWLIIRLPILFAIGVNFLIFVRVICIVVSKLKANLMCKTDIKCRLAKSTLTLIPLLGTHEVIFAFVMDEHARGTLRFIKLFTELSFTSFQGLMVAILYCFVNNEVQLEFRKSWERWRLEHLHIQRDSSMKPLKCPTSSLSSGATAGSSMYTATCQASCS
Summary of the method: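 GLP-1R inverse agonism mode: basal reporter luminescence in engineered HEK293 cells measured after one day of compound exposure at 37 deg C, with a 12 min room-temperature detection step.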
% is set by controls: 0 for no effect and ±100 for the full control effect; potency is the fitted concentration of half-maximal effect; tags give direction and shape of the fitted curve.

Row | Compound | Potency | activity change, negative = inhibition
1 | COC(=O)c1ccc(COc2cccc3c2CCN(Cc2cccc(C)c2)C3=O)o1 | inconclusive [inhibitor, single point] | –
2 | N/C(Cc1ccc([N+](=O)[O-])cc1)=N\OC(=O)C(c1ccccc1)c1ccccc1 | inconclusive [inhibitor, single point] | –
3 | Cc1cc(C)cc(OCC(=O)Nc2ccc3c(c2)OCO3)c1 | inconclusive [inhibitor, single point] | –
4 | O=C(CN(C(=O)c1csnn1)c1cccc2c1CCCC2)NCc1ccc(F)cc1 | inconclusive [inhibitor, single point] | –
5 | CC(=O)c1sc(NC(=O)c2c(-c3ccccc3)c(-c3ccccc3)nn(C)c2=O)nc1C | inconclusive [inhibitor, partial curve] | –
6 | COc1ccc(Cl)cc1NC(=S)NC1CCCC1 | inconclusive [inhibitor, partial curve, poor fit] | –
7 | CC1Cc2ccccc2N1S(=O)(=O)c1cccc(C(=O)N2CCN(c3ncccn3)CC2)c1 (stereo not drawn) | inconclusive [inhibitor, full curve, poor fit] | –
8 | COc1ccccc1NC(=O)c1ccc(S(=O)(=O)N2CCC(C)CC2)cc1 | inconclusive [inhibitor, single point] | –
9 | CCOCCn1c(=O)c2c(nc3n2CCCN3CCc2ccccc2)n(C)c1=O | – | inactive: -0.489%
10 | Cn1c(SCC(=O)Nc2ccc(Cl)cc2F)nnc1-c1ccco1 | – | inactive: 7.24%
11 | CCC(Oc1ccccc1)C(=O)Nc1ccccc1N1CCCC1 (stereo not drawn) | inconclusive [inhibitor, partial curve] | –
12 | COc1ccccc1Oc1nc(-c2ccccc2)cc(C)c1S(C)(=O)=O | inconclusive [inhibitor, single point] | –
13 | CSCC[C@H](NC(=O)[C@@H]1Cc2ccccc2CN1)C(=O)NC(C)c1ccccc1 (stereo partly drawn) | inconclusive [inhibitor, single point] | –
14 | CC(=O)Nc1cc(-c2ccccc2F)cn2c(-c3cccc(C(F)(F)F)c3)cnc12 | inconclusive [inhibitor, partial curve, poor fit] | –
15 | O=C(NCCCN1CCN(c2ccc(F)cc2)CC1)c1cc2c(Cl)nc3ccccc3c2s1 | – | inactive: 5.93%
16 | Cc1cc(=O)n(Cc2ccc(F)cc2Cl)c2c1c(C)nn2C | – | inactive: 26.2%
17 | CC(C)c1ccc(-c2noc(SCC(=O)N3CCCCC3C)n2)cc1 (stereo not drawn) | inconclusive [inhibitor, single point] | –
18 | Cc1cccc2sc(NNC(=O)c3cc(-c4cccs4)nc4ccccc34)nc12 | inconclusive [inhibitor, partial curve, poor fit] | –
19 | Cc1cccc(-c2nc(CCNC(=O)c3ccc(Br)o3)cs2)c1 | inconclusive [inhibitor, single point] | –
20 | COc1ccccc1Cc1c(-c2ccc(Cl)cc2)nc2c3ccccc3ccn12 | – | inactive: 10.4%
21 | CCOC(=O)C1=C(C)N(C[C@@H]2CC[C@@H](Cc3ccc(-c4ccccc4)cc3)O2)C(=O)NC1c1ccc(C(F)(F)F)cc1 (stereo partly drawn) | inconclusive [inhibitor, single point] | –

Row | Compound | Potency | activity change, negative = inhibition
22 | O=C(NCC1CCCCC1)c1cccc(-c2ccc(O)cc2)c1 | inconclusive [inhibitor, partial curve, poor fit] | –
23 | NS(=O)(=O)c1cccc(NS(=O)(=O)c2ccc(/C=C/C(=O)OCC(=O)c3ccc(Br)cc3)cc2)c1 | – | inactive: -6.91%
24 | CCCCC(=O)NC(NC(=S)N1CCOCC1)C(Cl)(Cl)Cl (stereo not drawn) | inconclusive [inhibitor, single point] | –
25 | COc1cc(Cl)ccc1OCc1cc(C(=O)N2CCN(c3ccccn3)CC2)no1 | inconclusive [inhibitor, single point] | –
26 | Cc1ccc2c(C)c(C(=O)NCCN3CCCC(O)C3)oc2c1C (stereo not drawn) | inconclusive [inhibitor, single point] | –
27 | O=C(NC1CCCC1)c1ccc(Br)c(S(=O)(=O)N2CCCCC2)c1 | inconclusive [inhibitor, partial curve] | –
28 | Cn1c(CNC(=O)c2ccccc2F)nnc1SCc1ccc(Cl)cc1 | inconclusive [inhibitor, partial curve, poor fit] | –
29 | Cc1ccc(Cn2c(C3CCCN3c3nc(-c4ccc(F)cc4)cs3)nc3cc(C(F)(F)F)ccc32)cc1 (stereo not drawn) | inconclusive [inhibitor, single point] | –
30 | CCC(Sc1nc(-c2ccccc2)[nH]c1S(=O)(=O)c1ccc(C)cc1)C(=O)O (stereo not drawn) | – | inactive: 7.62%
31 | NC(=O)c1c(-c2cccs2)csc1N | – | inactive: 0%
32 | CS(=O)(=O)c1ccc(Nc2nc(C(N)CCc3ccccc3)cs2)cc1 (stereo not drawn) | inconclusive [inhibitor, partial curve, poor fit] | –
33 | COc1ccc(S(=O)(=O)N2CCN(C(=O)CNC(=O)c3ccc4c(c3)OCO4)CC2)cc1 | – | inactive: 13.2%
34 | COC(=O)CN(c1nc(C)c(Br)c(OC)n1)S(=O)(=O)c1ccc(C)cc1 | inconclusive [inhibitor, partial curve, poor fit] | –
35 | O=S(=O)(Nc1ccc(-c2ccc(N3CCCC3)nn2)cc1)c1ccc(C(F)(F)F)cc1 | inconclusive [inhibitor, single point] | –
36 | Clc1ccc(CSc2nnc(CN3CCOCC3)n2-c2ccccc2)cc1Cl | inconclusive [inhibitor, single point] | –
37 | COc1ccc(NC(=O)C(=O)Nc2cccc3ccccc23)c(OC)c1 | – | inactive: 26.6%
38 | CN1CCc2c(sc(NC(=O)c3ccc([N+](=O)[O-])o3)c2C(N)=O)C1 | inconclusive [inhibitor, single point] | –
39 | CS(=O)(=O)c1ccc(Nc2nc(C(N)Cc3ccc(C(F)(F)F)cc3)cs2)cc1 (stereo not drawn) | inconclusive [inhibitor, single point] | –
40 | COC(=O)c1ccc(Sc2ccc(Cl)cc2)c(N)c1 | – | inactive: 0%
41 | COc1ccccc1C(=O)Nc1ccnn1C1CCN(CCC(C)c2ccc(C)o2)CC1 (stereo not drawn) | inconclusive [inhibitor, partial curve, poor fit] | –
42 | CCCCN1C(=O)c2ccc(C(=O)Nc3ccc(C)c(S(=O)(=O)N(C)C)c3)cc2C1=O | inconclusive [inhibitor, partial curve, poor fit] | –

Row | Compound | Potency | activity change, negative = inhibition
43 | CCNC(=S)Nc1cc(C(=O)N2CCCC2)ccc1N1CCCC1 | – | inactive: 5.25%
44 | CCOC(=O)C1=CCN(S(=O)(=O)c2ccc(C)cc2)C1c1cccc2ccccc12 (stereo not drawn) | inconclusive [inhibitor, single point] | –
45 | CCOc1cc(C(=O)NC(C)C2CC3CCC2C3)cc(OCC)c1OCC (stereo not drawn) | inconclusive [inhibitor, single point] | –
46 | CCCn1nnc(NC(=O)c2cccc(OCC(C)C)c2)n1 | inconclusive [inhibitor, partial curve, poor fit] | –
47 | Cc1cc2c(c(C)c1CCO)C(=O)[C@H](C)C2 | – | inactive: 4.38%
48 | COc1ccc(-c2nc3sc(CCNC(=O)Cc4ccc(F)cc4)c(C)n3n2)cc1 | – | inactive: 10.3%
49 | CC1CCN(c2nc(-c3ccncc3)nc3ccccc23)CC1 | active: 6.31 µM | –
50 | Oc1ccc(C[C@H]2CNC(=S)N2CC2CCCN2C[C@H](Cc2ccccc2)N2C[C@H](Cc3ccc(O)cc3)N(CC3CCCCC3)C2=S)cc1 (stereo partly drawn) | inconclusive [inhibitor, partial curve, poor fit] | –
51 | O=S(=O)(c1ccc(F)cc1)N1CN(Cc2ccco2)c2nc3ccccc3nc21 | inconclusive [inhibitor, single point] | –
52 | CCc1ccc(CN(C)C(=O)c2cc(COc3cccc4cnccc34)on2)cc1 | inconclusive [inhibitor, partial curve, poor fit] | –
53 | C(=C\c1ccccc1)/CN1CCN(C(c2nnnn2Cc2ccccc2)C2CC2)CC1 (stereo not drawn) | inconclusive [inhibitor, partial curve, poor fit] | –
54 | CCN(CC)CCN1C(=O)C2C(C(=O)Nc3cccc(SC)c3)C3C=CC2(O3)C1C(=O)NC1CCCC(C)C1C (stereo not drawn) | inconclusive [inhibitor, partial curve, poor fit] | –
55 | COc1cccc2sc(NC(=O)c3ccc(S(=O)(=O)N4CCC(C)CC4)cc3)nc12 | inconclusive [inhibitor, single point] | –
56 | COc1ccc(CCCC(=O)N/N=C/c2ccc(C)cc2)cc1 | inconclusive [inhibitor, single point] | –
57 | O=C(Nc1cccc(S(=O)(=O)NC2=NCCCCC2)c1)c1cc(-c2ccc(Cl)cc2)nc2ccccc12 | inconclusive [inhibitor, partial curve, poor fit] | –
58 | CCN1C(=O)[C@H]2[C@@H](c3ccc(-c4ccc(OC)cc4)cc3)N[C@@](Cc3ccccc3)(C(=O)OC)[C@H]2C1=O | – | inactive: -7.01%
59 | O=C(c1ccccc1[N+](=O)[O-])N(CCc1ccccc1)Cc1ccccc1 | inconclusive [inhibitor, partial curve, poor fit] | –
60 | COc1cccc2cc(C(=O)Nc3ccccc3Cl)/c(=N/NS(=O)(=O)c3ccccc3)oc12 | – | inactive: 1.99%
61 | Cc1ccc(C)c(NC(=O)c2sc(Cl)nc2-c2ccccc2)c1 | inconclusive [inhibitor, single point] | –
62 | [O-][N+]1=c2ccc(Nc3ccccc3)cc2=NC12CCCCC2 | inconclusive [inhibitor, single point] | –
63 | COc1cc(NC(=O)C2=C(N3CCOCC3)/C(=C/c3ccc(Cl)cc3)CC2)cc(OC)c1OC | inconclusive [inhibitor, partial curve, poor fit] | –

— PubChem BioAssay AID624417 (National Center for Advancing Translational Sciences (NCATS), 2012)
